# Results as given in publication PMC4336329 (PLoS ONE, 2015).
# Out of some 310,000 compounds screened, about 2,200 (0.71%) showed an effect of 50% or more. Effects have a minus sign here. The list shows a part of the results.
# Target: human ether-à-go-go-related gene (hERG) potassium channel (human, UniProt Q12809)
# Test: primary screen, population patch clamp on CHO cells stably expressing hERG
# Chain of human ether-à-go-go-related gene (hERG) potassium channel (Q12809 whole entry, looked up): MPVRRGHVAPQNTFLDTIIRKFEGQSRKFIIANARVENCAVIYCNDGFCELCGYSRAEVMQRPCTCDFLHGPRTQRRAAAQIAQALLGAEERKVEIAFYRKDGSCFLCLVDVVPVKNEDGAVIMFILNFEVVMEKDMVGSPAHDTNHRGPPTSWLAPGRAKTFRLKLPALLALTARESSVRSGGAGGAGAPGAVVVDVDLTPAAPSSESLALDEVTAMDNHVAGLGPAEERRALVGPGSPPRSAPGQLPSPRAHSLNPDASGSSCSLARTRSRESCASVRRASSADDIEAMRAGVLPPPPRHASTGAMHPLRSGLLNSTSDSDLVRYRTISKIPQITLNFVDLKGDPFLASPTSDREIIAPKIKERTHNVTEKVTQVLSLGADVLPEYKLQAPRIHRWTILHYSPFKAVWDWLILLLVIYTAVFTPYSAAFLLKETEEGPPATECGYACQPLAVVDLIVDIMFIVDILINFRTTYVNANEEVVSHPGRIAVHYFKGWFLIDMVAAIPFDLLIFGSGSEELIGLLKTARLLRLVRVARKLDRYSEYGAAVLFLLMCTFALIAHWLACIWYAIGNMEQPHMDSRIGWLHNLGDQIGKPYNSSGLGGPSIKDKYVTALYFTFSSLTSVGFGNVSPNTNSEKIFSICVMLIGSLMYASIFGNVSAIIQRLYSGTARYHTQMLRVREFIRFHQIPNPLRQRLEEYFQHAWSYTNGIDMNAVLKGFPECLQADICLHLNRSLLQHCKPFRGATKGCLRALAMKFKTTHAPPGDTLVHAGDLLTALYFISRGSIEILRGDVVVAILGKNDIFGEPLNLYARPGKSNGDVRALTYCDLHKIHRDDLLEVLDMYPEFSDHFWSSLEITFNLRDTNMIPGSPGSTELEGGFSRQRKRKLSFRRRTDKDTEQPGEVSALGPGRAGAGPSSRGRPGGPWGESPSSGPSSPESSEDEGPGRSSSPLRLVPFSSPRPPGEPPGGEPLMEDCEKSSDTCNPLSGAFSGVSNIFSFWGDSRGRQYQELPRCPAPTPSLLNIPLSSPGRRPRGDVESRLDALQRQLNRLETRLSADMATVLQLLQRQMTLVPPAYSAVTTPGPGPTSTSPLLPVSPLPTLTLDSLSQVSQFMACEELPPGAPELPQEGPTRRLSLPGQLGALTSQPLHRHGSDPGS
row,Compound,"hERG current change (%, negative = inhibition) at 1uM [%]"
1,NC(=O)C1CC(=O)N(c2ccc(OCC(=O)Nc3ccccc3F)cc2)C1 (stereo not shown),8.02
2,CCn1c(CNC(=O)c2ccc(Cl)cc2)nnc1SCC(=O)N1CCOCC1,7.08
3,Cc1ccc(CNC(=O)C2CCCN(S(=O)(=O)N3CCC(C)CC3)C2)cc1 (stereo not shown),15
4,NC(=O)c1cc([N+](=O)[O-])ccc1N1CCN(Cc2ccccc2)CC1,-12.1
5,Cc1cccc(N(CC(=O)NC2CCCC2)C(=O)CCCC(=O)Nc2ccccn2)c1,6.08
6,CCC1CCCCN1C(=O)CSc1nc2c([nH]c3ccccc32)c(=O)n1C (stereo not shown),10.3
7,CC(C)Cn1c(N)c(C(=O)COC(=O)c2cc(C(F)(F)F)nc3ccccc23)c(=O)n(C)c1=O,11
8,c1ccc2c(c1)COC(CN1CCCCC1)OC2,4.39
9,CC(=O)N(c1ccc(C)cc1)C1C=CS(=O)(=O)C1 (stereo not shown),6.55
10,CC(=O)Nc1ccc(S(=O)(=O)N2CCC(C(=O)Nc3nccs3)CC2)cc1,15.9
11,CCc1ccc(/C=N/NC(=O)Cc2ccc(OC)c(OC)c2)s1,14.4
12,COc1cccc(C(Nc2ccccn2)c2oc(CO)cc(=O)c2O)c1 (stereo not shown),12.4
13,CCC(=O)Nc1ccc(C(=O)n2ccc(C)n2)cc1,11.1
14,O=C(COc1ccc(F)cc1Cl)NC1CCCCCC1,6.08
15,COc1ccc(-n2ncc3c2CC(C)(C)CC3NC(=O)c2c(C)cc(=O)oc2C)cc1 (stereo not shown),10.8
16,N#Cc1ccc(C(=O)OCC(=O)Nc2ccc(S(N)(=O)=O)cc2)cc1,9.84
17,COC(=O)N/N=C1\CCCc2ccccc21,12.3
18,O=C1CC(Cc2ccc(Cl)cc2)C(=O)N1c1cc(Cl)ccn1 (stereo not shown),-10.2
19,CCOC(=O)c1cc(-c2ccccc2)sc1NC(=O)C(C)N1C(=O)NC(C)(c2ccc(Cl)cc2)C1=O (stereo not shown),6.49
20,COc1ccc(NC(=O)CCCc2ccccc2)cc1OC,15.6
21,C=CCOc1cccc(C(=O)/C=C2/C(=O)Nc3ccccc32)c1,11.5
22,O=C(COC(=O)c1cc(S(=O)(=O)N2CCOCC2)ccc1O)Nc1cc(S(=O)(=O)N2CCCC2)ccc1Cl,9.18
23,COC(=O)C1CC(=O)c2ccsc2C1 (stereo not shown),1.75

row,Compound,"hERG current change (%, negative = inhibition) at 1uM [%]"
1,CSCCC(NC(=O)c1ccccc1Cl)C(=O)Nc1cccc(S(=O)(=O)N2CCCC2)c1 (stereo not shown),13.4
2,COc1cccc(CNC2CCCCCCC2)c1OC,14.7
3,Cc1ccc(NC(=O)C(OC(=O)c2ccccc2Cl)c2ccccc2)cc1Cl (stereo not shown),16.1
4,COc1ccc(CNC(=O)CN(C)S(=O)(=O)c2ccc(Br)s2)cc1,1.1
5,Cc1cc(NC(=O)Nc2cccc(C)c2C)no1,18.6
6,CCCCCCCNC(=O)CN1N=C(c2ccc(C)cc2)CCC1=O,-14.4
7,CC(Sc1ncccn1)C(=O)NC1CCCC1 (stereo not shown),8.95
8,O=C(CCC1CCCN(C(=O)c2cc3ccccc3o2)C1)NCc1ccc(F)c(F)c1 (stereo not shown),5.34
9,CC1=C(C(=O)OCC(Cl)(Cl)Cl)N2C(=O)C(NC(=O)Cc3ccccc3)C2SC1 (stereo not shown),2.34
10,CC1CCN(S(=O)(=O)c2ccc(C(=O)NCc3cccnc3)cc2)CC1,10.4
11,CCOC(=O)c1sc2nc(C)nc(Nc3ccc(OC)cc3)c2c1C,2.77
12,Cc1ccnc(NS(=O)(=O)c2ccc(NC(=O)CCOc3ccccc3)cc2)n1,12.9
13,Cc1nn(C)c(Nc2ccc(Br)cc2)c1Br,12.5
14,CCN(CC)c1nc2n(c(=S)n1)CCS2,11.9
15,COc1cccc(NC(=O)CN(C)C(=O)/C=C/c2cn(-c3ccccc3)nc2-c2ccc(C)cc2)c1,7.92
16,COC(=O)c1ccccc1NC(=O)N1CCN(S(C)(=O)=O)CC1,15.9
17,CC(C)CC[n+]1ccn(-c2nc3ccccc3nc2[N-]S(=O)(=O)c2ccccc2)c1,13.3
18,O=C(Cn1nnc(-c2cccs2)n1)NCCc1ccccc1,9.34
19,O=C(NCc1ccccc1)c1csc2c1CCCC2,12.7
20,O=C(c1ccc(F)cc1)N1CCC(N2CCOCC2)CC1,3.28
21,CC(=O)C1C(c2cccc([N+](=O)[O-])c2)C2C(C)=NN=C2CC1(C)O (stereo not shown),9.51
22,Cc1ccc(S(=O)(=O)N(CC(=O)NCC2CCCO2)C2CCCCC2)cc1 (stereo not shown),10.6
23,COc1ccc(Nc2nc3c(C)cccc3cc2C#N)c(OC)c1,7.17
